Our source for the binding signal (log2 fold change) values is publication PMC5892938.

The list shows a part of the results. At the low end of the ranking the order means little.

This assay has as its target GST-SBP-SLBP (stem-loop binding protein) (UniProt Q14493). Nature of the assay: targeted RNA Bind-n-Seq.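 Note: DESeq read counts versus GST-SBP nonspecific binding control pulldown.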 The conditions noted are these: RBNS binding buffer: 25 mM Tris pH 7.5, 150 mM KCl, 3 mM MgCl2, 0.1% Tween, 0.5 mg/mL BSA, 1 mM DTT; 27 nM protein, 750 pM RNA pool; temperature not stated; high values mean tight binding.
As for “GGUCACGUCUCAAUCAACUCAAUCGAGGGGGGGAAAACCCCUUUACCCUCAACUUCAACAGCUCGCAGUCAAG”, the binding signal (log2 fold change) was -0.28.

For “GGUCACGUCUCAAUCAACUCUACUUCAGGAGUUUACUCCUGCUAUCUCAACAGCUCGCAGUCAAG”, the binding signal (log2 fold change) is -0.0433. On to “GGUCACGUCUCAAUCAACUCUCACGAGGGGGGGAAAACCCCUUUACCCUCAAUAUCAACAGCUCGCAGUCAAG”, for which the binding signal (log2 fold change) was -0.134.

In the case of “GGUCACGUCUCAAUCAACUCCAAAGAGGGGGGGAAAACCCCUUUACCCUCAUUCUCAACAGCUCGCAGUCAAG”, the binding signal (log2 fold change) was -0.346. Consider “GGUCACGUCUCAAUCAACUCUUUCCCAGGAGUUUUCUCCUGUAAUUUCAACAGCUCGCAGUCAAG”, for which the binding signal (log2 fold change) stood at 0.00681. For the sequence “GGUCACGUCUCAAUCAACUCAGUCUCAGGAGUUUUCUCCUGUUUAUUCAACAGCUCGCAGUCAAG”, the binding signal (log2 fold change) is -0.298.

Consider “GGUCACGUCUCAAUCAACUCAACUUCAGGAGUUUCCUCCUGCUUUUUCAACAGCUCGCAGUCAAG”, for which the binding signal (log2 fold change) was -0.144. On to “GGUCACGUCUCAAUCAACUCAACAGAGGGGGGGAAAACCCCUUUACCCUCCAUCUCAACAGCUCGCAGUCAAG”, for which the binding signal (log2 fold change) is -0.0395.

Regarding “GGUCACGUCUCAAUCAACUCAAUCUCAGGAGUUUUCUCCUGCAUUCUCAACAGCUCGCAGUCAAG”, the binding signal (log2 fold change) is -0.0343. Take “GGUCACGUCUCAAUCAACUCAGUCCCAGGAGUUUACUCCUGUUUUCUCAACAGCUCGCAGUCAAG”: the binding signal (log2 fold change) was 0.0558.

“GGUCACGUCUCAAUCAACUCAAUCGAGGGGGGGAAAACCCCUUUACCCUCAAAAUCAACAGCUCGCAGUCAAG”: the binding signal (log2 fold change) is -0.158. To “GGUCACGUCUCAAUCAACUCCAAAGAGGGGGGGAAAACCCCUUUACCCUCGUCCUCAACAGCUCGCAGUCAAG” belongs 0.369. As for “GGUCACGUCUCAAUCAACUCAUCGUCAGGAGUUUCCUCCUGUUAUUUCAACAGCUCGCAGUCAAG”, the binding signal (log2 fold change) came to 0.0969. To “GGUCACGUCUCAAUCAACUCAAUUCCAGGAGUUUACUCCUGCAUAGUCAACAGCUCGCAGUCAAG” belongs 0.138; to “GGUCACGUCUCAAUCAACUCAUUCUCAGGAGUUUGCUCCUGUUAUCUCAACAGCUCGCAGUCAAG”, -0.0468.

As to “GGUCACGUCUCAAUCAACUCAAGUCCAGGAGUUUCCUCCUGUUAUCUCAACAGCUCGCAGUCAAG”, the binding signal (log2 fold change) was -0.125. With “GGUCACGUCUCAAUCAACUCUCAAGAGGGGGGGAAAACCCCUUUGCCCUCACAUUCAACAGCUCGCAGUCAAG”, the binding signal (log2 fold change) was -0.0507.

For the sequence “GGUCACGUCUCAAUCAACUCUUUCCCCAGGGAAAACCCUGGCUAACUCAACAGCUCGCAGUCAAG”, the binding signal (log2 fold change) amounted to 0.153. Regarding “GGUCACGUCUCAAUCAACUCUUUCUCCAGGGAAAGCCCUGGCUUAUUCAACAGCUCGCAGUCAAG”, the binding signal (log2 fold change) is -0.0812. With “GGUCACGUCUCAAUCAACUCAUUCCCCAGGGAAAUCCCUGGCAAAUUCAACAGCUCGCAGUCAAG”, the binding signal (log2 fold change) was -0.046. As to “GGUCACGUCUCAAUCAACUCCUUCGAGGGGGGGAAAACCCCUUUACCCUCAUCGUCAACAGCUCGCAGUCAAG”, the binding signal (log2 fold change) was -0.238. Take “GGUCACGUCUCAAUCAACUCCAUAGAGGGGGGGAAAACCCCUUUACCCUCAAUCUCAACAGCUCGCAGUCAAG”: the binding signal (log2 fold change) is -0.0738.

As for “GGUCACGUCUCAAUCAACUCUUUUCCAGGAGUUUUCUCCUGCAUUUUCAACAGCUCGCAGUCAAG”, the binding signal (log2 fold change) was -0.117. With “GGUCACGUCUCAAUCAACUCCUACGAGGGGGGGAAAACCCCUUUACCCUCAUUCUCAACAGCUCGCAGUCAAG”, the binding signal (log2 fold change) is -0.452.

For “GGUCACGUCUCAAUCAACUCAGUUUCCAGGGAAAGCCCUGGCAUUUUCAACAGCUCGCAGUCAAG”, the binding signal (log2 fold change) was determined as 0.0887.

Consider “GGUCACGUCUCAAUCAACUCUAUUCCCAGGGAAAACCCUGGCUAUUUCAACAGCUCGCAGUCAAG”, for which the binding signal (log2 fold change) is -0.0983.

Take “GGUCACGUCUCAAUCAACUCUAUCCCAGGAGUUUACUCCUGUUUUUUCAACAGCUCGCAGUCAAG”: the binding signal (log2 fold change) is -0.00753.

“GGUCACGUCUCAAUCAACUCUAUGUCAGGAGUUUCCUCCUGUUUUCUCAACAGCUCGCAGUCAAG”: the binding signal (log2 fold change) is -0.15. On to “GGUCACGUCUCAAUCAACUCAUCUCCAGGAGUUUACUCCUGUUAUUUCAACAGCUCGCAGUCAAG”, for which the binding signal (log2 fold change) worked out at 0.175. Take “GGUCACGUCUCAAUCAACUCUACGGAGGGGGGGAAAACCCCUUUACCCUCACAUUCAACAGCUCGCAGUCAAG”: the binding signal (log2 fold change) is 0.0891. With “GGUCACGUCUCAAUCAACUCUUCCUCAGGAGUUUCCUCCUGUUUUUUCAACAGCUCGCAGUCAAG”, the binding signal (log2 fold change) amounted to 0.00246. In the case of “GGUCACGUCUCAAUCAACUCAUCUCCCAGGGAAAUCCCUGGCUUUUUCAACAGCUCGCAGUCAAG”, the binding signal (log2 fold change) is -0.112.

As for “GGUCACGUCUCAAUCAACUCUUCCUCAGGAGUUUCCUCCUGCAUUCUCAACAGCUCGCAGUCAAG”, the binding signal (log2 fold change) is 0.223. Take “GGUCACGUCUCAAUCAACUCUUCUCCCAGGGAAACCCCUGGUUUACUCAACAGCUCGCAGUCAAG”: the binding signal (log2 fold change) is -0.0411.

Consider “GGUCACGUCUCAAUCAACUCAAUUUCAGGAGUUUUCUCCUGCAUACUCAACAGCUCGCAGUCAAG”, for which the binding signal (log2 fold change) worked out at 0.116.

Turning to “GGUCACGUCUCAAUCAACUCAGUCUCAGGAGUUUACUCCUGCAUUUUCAACAGCUCGCAGUCAAG”, the binding signal (log2 fold change) was -0.123. In the case of “GGUCACGUCUCAAUCAACUCUAUCUCCAGGGAAAGCCCUGGCUUUCUCAACAGCUCGCAGUCAAG”, the binding signal (log2 fold change) was 0.0855.
